From the supplement of paper PMC12217912
This is one part of the list. The full chains were built here from the parent and the listed change. Values near 0.05 are background.

B1: TEV protease; numbered along this chain (parent)
chain: MGESLFKGPRDYNPISSSICHLTNESDGHTTSLYGIGFGPFIITNKHLFRRNNGTLVVQSLHGVFKVKDTTTLQQHLVDGRDMIIIRMPKDFPPFPQKLKFREPQREERICLVTTNFQTKSMSSMVSDTSCTFPSGDGIFWKHWIQTKDGQCGSPLVSTRDGFIVGIHSASNFTNTNNYFTSVPKNFMELLTNQEAQQWVSGWRLNADSVLWGGHKVFMVKPEEPFQPVKEATQL

Variants of: B1
Test: raw area under fraction-flipped curve 0-4 h after induction (AUC4h, not background-subtracted), DNA-recorder readout of cleavage of the substrate (dimensionless); higher = more cleavage of the substrate by the protease variant
Conditions: temperature: 34 °C; time window: 0-4 h after rhamnose induction
Method: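 In vivo DNA recorder in E. coli TOP10(DE3) ΔrhaA at 34 °C. Each TEVp single-site mutant (parent TEVp 0) is paired with a single-site variant of the 7-mer TEVs (canonical ENLYFQ|S). The substrate sits between flexible linkers in a Bxb1-sfGFP-TEVs-SsrA fusion, so cleavage stabilises Bxb1 and speeds flipping of a recombination array, read by NGS. The value is the raw area under the fraction-flipped curve over 0-4 h after rhamnose induction (AUC4h), with ≥20 reads per time point. It is not background-subtracted; inactive controls average about 0.047.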
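Note: Bxb1 expression induced with 0.2% (w/v) L-rhamnose at OD600 near 0.5, cultures sampled hourly, flipped fraction per protease–substrate barcode pair counted by paired-end Illumina sequencing.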

Variant | area with substrate ECLYFQS | area with substrate EDLYFQS | area with substrate EGLYFQS | area with substrate EILYFQS | area with substrate EKLYFQS | area with substrate ELLYFQS | area with substrate EMLYFQS | area with substrate EPLYFQS | area with substrate EQLYFQS | area with substrate ERLYFQS | area with substrate ETLYFQS | area with substrate EVLYFQS | area with substrate EWLYFQS | area with substrate EYLYFQS | area with substrate EALYFQS | area with substrate ESLYFQS | area with substrate EHLYFQS | area with substrate EELYFQS | area with substrate EFLYFQS
T55W | 0.0849 | 0.152 | 0.101 | 0.0931 | 0.0563 | 0.0868 | 0.114 | 0.109 | 0.121 | 0.105 | 0.102 | 0.0818 | 0.0751 | 0.0788 |  |  |  |  | 
V229N | 0.107 |  |  | 0.107 | 0.114 | 0.116 | 0.13 | 0.15 | 0.118 | 0.0906 | 0.173 | 0.0989 | 0.0924 | 0.103 | 0.158 | 0.106 |  |  | 
V229W | 0.0915 | 0.154 | 0.113 | 0.0949 | 0.091 | 0.0716 | 0.0428 | 0.0916 | 0.118 |  | 0.102 | 0.0814 | 0.0756 |  | 0.11 | 0.115 | 0.122 |  | 
F49L | 0.0553 | 0.0733 | 0.0519 | 0.0494 | 0.0493 |  | 0.0297 |  | 0.0481 | 0.0718 |  | 0.0544 | 0.081 |  |  | 0.0635 | 0.0849 | 0.0698 | 
N53K | 0.0768 |  | 0.0945 | 0.083 | 0.0939 |  | 0.0952 | 0.11 | 0.104 | 0.0862 |  |  | 0.0692 | 0.0764 |  | 0.1 | 0.0864 | 0.0854 | 
Q234P | 0.098 |  | 0.0922 | 0.0931 | 0.0877 | 0.0897 |  | 0.116 |  | 0.087 |  | 0.0912 | 0.09 | 0.0632 | 0.121 | 0.0879 |  |  | 
Q234E | 0.095 | 0.168 | 0.107 | 0.0947 | 0.0908 | 0.092 | 0.12 | 0.112 | 0.109 | 0.0929 |  | 0.0984 |  |  | 0.12 | 0.13 | 0.0527 |  | 
G35Y | 0.0446 |  |  |  | 0.0452 | 0.06 |  |  |  |  |  | 0.0364 |  |  |  | 0.0294 |  |  | 
T30M | 0.11 |  | 0.0608 | 0.0599 |  | 0.0933 |  | 0.117 | 0.128 | 0.128 |  | 0.0923 |  |  |  | 0.134 | 0.118 |  | 
T30H | 0.103 | 0.0964 |  | 0.0844 | 0.1 | 0.0281 | 0.149 | 0.139 | 0.0997 | 0.0929 | 0.0976 | 0.1 | 0.0936 |  |  | 0.1 |  | 0.149 | 0.0717
M83N | 0.0651 |  |  | 0.0516 | 0.0504 | 0.0591 | 0.052 | 0.0523 | 0.0529 | 0.0407 | 0.0353 | 0.0509 |  | 0.0619 |  | 0.0482 |  |  | 
M83H | 0.0506 | 0.0751 | 0.0568 | 0.054 |  | 0.074 | 0.0651 |  |  | 0.0486 |  | 0.0615 | 0.0458 | 0.0638 |  | 0.0436 | 0.0529 |  | 
L235D |  |  |  | 0.0714 | 0.135 |  | 0.0922 |  | 0.102 |  |  |  |  |  | 0.131 | 0.109 |  |  | 
L235W | 0.0986 |  | 0.103 |  |  |  | 0.0901 | 0.0934 | 0.0972 |  |  | 0.086 |  | 0.0904 | 0.184 | 0.0866 | 0.0818 |  | 
T72I | 0.0887 | 0.171 | 0.0914 |  |  |  |  |  | 0.0913 | 0.0977 |  | 0.0961 | 0.108 | 0.0803 |  | 0.0981 |  |  | 
T72W | 0.0851 |  |  | 0.071 | 0.102 | 0.0552 | 0.0884 | 0.109 |  | 0.0832 |  | 0.0603 |  | 0.0556 |  | 0.0673 | 0.0547 | 0.0853 | 

Variant | area with substrate ECLYFQS | area with substrate EDLYFQS | area with substrate EGLYFQS | area with substrate EILYFQS | area with substrate EKLYFQS | area with substrate ELLYFQS | area with substrate EMLYFQS | area with substrate EPLYFQS | area with substrate EQLYFQS | area with substrate ERLYFQS | area with substrate ETLYFQS | area with substrate EVLYFQS | area with substrate EWLYFQS | area with substrate EYLYFQS | area with substrate EALYFQS | area with substrate ESLYFQS | area with substrate EHLYFQS | area with substrate EELYFQS | area with substrate EFLYFQS
L33A | 0.12 | 0.136 |  | 0.0756 | 0.0949 | 0.078 | 0.11 | 0.146 | 0.106 | 0.0965 | 0.109 |  |  |  |  |  |  |  | 
F41M | 0.101 | 0.136 | 0.0963 | 0.0991 |  |  | 0.0786 |  | 0.114 | 0.109 |  | 0.0891 |  |  |  | 0.097 | 0.118 | 0.112 | 0.0695
I19D | 0.0477 | 0.0388 | 0.0348 | 0.0475 | 0.0441 |  | 0.045 | 0.0463 | 0.0507 |  | 0.0626 | 0.0565 | 0.0334 | 0.0426 |  | 0.0471 | 0.0485 | 0.0445 | 0.0458
K7R | 0.139 | 0.139 | 0.0866 | 0.0706 |  | 0.108 |  | 0.112 | 0.151 |  |  | 0.101 |  |  |  | 0.0804 | 0.104 |  | 
K7F | 0.0817 |  |  | 0.105 | 0.117 |  |  |  |  |  |  |  |  |  |  | 0.0971 |  |  | 
R51E | 0.106 |  | 0.0921 | 0.088 | 0.0766 | 0.113 | 0.118 | 0.12 |  | 0.121 | 0.123 | 0.0939 |  | 0.114 |  |  | 0.0867 |  | 0.101
R51T | 0.0959 |  |  | 0.15 |  |  |  |  |  | 0.172 |  |  | 0.133 |  |  | 0.122 |  |  | 
R51V | 0.0955 | 0.135 |  | 0.135 |  |  | 0.131 | 0.127 |  | 0.0862 |  | 0.0874 |  | 0.134 |  | 0.1 |  | 0.128 | 
L73M | 0.123 | 0.0942 |  |  | 0.103 | 0.0708 | 0.0681 | 0.0508 |  | 0.0752 | 0.108 |  |  |  |  | 0.0768 |  | 0.101 | 0.0784
N24I | 0.0612 | 0.0789 | 0.0911 | 0.0811 | 0.0648 | 0.0892 | 0.0748 | 0.0904 |  | 0.0672 | 0.102 | 0.0239 | 0.0887 |  |  | 0.0739 |  |  | 0.0916
P94H | 0.0849 |  | 0.106 |  | 0.126 |  |  | 0.12 |  |  | 0.11 |  |  | 0.106 |  | 0.107 | 0.0856 |  | 
P228I | 0.0785 |  |  | 0.0256 |  |  |  |  | 0.118 |  |  |  |  |  | 0.127 | 0.0753 |  |  | 
G2P | 0.125 | 0.101 | 0.109 | 0.139 | 0.123 | 0.0935 | 0.139 | 0.137 |  | 0.142 | 0.123 | 0.131 |  | 0.161 |  | 0.178 | 0.13 | 0.129 | 
Y34T | 0.0721 |  | 0.0596 |  |  |  |  |  | 0.0744 | 0.0759 |  |  | 0.0818 | 0.0801 |  | 0.0752 |  | 0.102 | 
E3K | 0.128 |  | 0.0698 | 0.122 |  | 0.0706 | 0.141 |  |  | 0.117 | 0.165 | 0.12 |  |  |  | 0.129 | 0.156 |  | 
